Test results: the BET-seq Pho4 binding data (Le et al. 2018)
This is one part of the list. The energies were worked out here from pooled read counts, against the library average; single values are noisy.

Each sequence was assayed against T1, Pho4 (S. cerevisiae) (UniProt P07270) (assay: relative binding free energy (BET-seq); higher = weaker binding). Conditions: reference: library average.
T1 sequence: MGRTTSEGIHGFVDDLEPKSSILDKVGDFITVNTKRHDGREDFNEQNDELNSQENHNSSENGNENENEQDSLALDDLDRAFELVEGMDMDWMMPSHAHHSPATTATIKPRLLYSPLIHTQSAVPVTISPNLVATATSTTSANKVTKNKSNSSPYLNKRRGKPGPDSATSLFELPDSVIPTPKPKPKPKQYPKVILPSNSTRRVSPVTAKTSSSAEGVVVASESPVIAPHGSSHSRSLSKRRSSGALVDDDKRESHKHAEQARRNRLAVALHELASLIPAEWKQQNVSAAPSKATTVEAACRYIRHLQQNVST

Question: GGTTTCACGTGATAGA was tested. Which “relative binding free energy” value did it give?
Answer: 0.36 kcal/mol

Question: With TTATACACGTGATAAT as the sequence, how does the “relative binding free energy” value read?
Answer: 0.3 kcal/mol

Question: Which “relative binding free energy” value does the source give for GGTCGCACGTGCTAGG here?
Answer: -0.14 kcal/mol

Question: TCCGGCACGTGATTGG was tested. Which “relative binding free energy” value did it give?
Answer: 0.12 kcal/mol

Question: For TGTGTCACGTGTGCGT, which “relative binding free energy” value is on record?
Answer: 0.06 kcal/mol

Question: For CTGGTCACGTGGATGG, which “relative binding free energy” value is on record?
Answer: 0.2 kcal/mol

Question: TGCTTCACGTGCGTAT was tested. Which “relative binding free energy” value did it give?
Answer: 0.19 kcal/mol

Question: Which “relative binding free energy” value does the source give for CGTATCACGTGTTGGG here?
Answer: 0.25 kcal/mol

Question: For GCGGGCACGTGTGGCT, which “relative binding free energy” value is on record?
Answer: -0.06 kcal/mol

Question: How did the “relative binding free energy” value turn out when CGGGCCACGTGGAGTG was run?
Answer: -0.11 kcal/mol

Question: For AGTAGCACGTGTAAGG, which “relative binding free energy” value is on record?
Answer: 0.07 kcal/mol

Question: Which “relative binding free energy” value does the source give for TTGGGCACGTGGACGC here?
Answer: -0.07 kcal/mol

Question: With TGTCACACGTGTAATA as the sequence, how does the “relative binding free energy” value read?
Answer: 0.25 kcal/mol

Question: For CTCTGCACGTGATGGG, which “relative binding free energy” value is on record?
Answer: 0.11 kcal/mol

Question: Which “relative binding free energy” value does the source give for GGTTACACGTGGAATT here?
Answer: 0.24 kcal/mol

Question: How did the “relative binding free energy” value turn out when AAGTTCACGTGTGTTC was run?
Answer: 0.3 kcal/mol

Question: Which “relative binding free energy” value does the source give for GAATGCACGTGGAAGT here?
Answer: 0.05 kcal/mol

Question: GCAGGCACGTGTGGCA was tested. Which “relative binding free energy” value did it give?
Answer: 0.06 kcal/mol

Question: GGCGACACGTGTAGAG was tested. Which “relative binding free energy” value did it give?
Answer: 0.21 kcal/mol

Question: AATTACACGTGCATGT was tested. Which “relative binding free energy” value did it give?
Answer: 0.16 kcal/mol

Question: With GGGGTCACGTGATGTT as the sequence, how does the “relative binding free energy” value read?
Answer: 0.33 kcal/mol

Question: With GTTATCACGTGGGTCG as the sequence, how does the “relative binding free energy” value read?
Answer: 0.19 kcal/mol

Question: For GAGGACACGTGGGGGC, which “relative binding free energy” value is on record?
Answer: -0.12 kcal/mol

Question: Which “relative binding free energy” value does the source give for AATAACACGTGGGTAT here?
Answer: -0.1 kcal/mol

Question: Which “relative binding free energy” value does the source give for GATCGCACGTGGGGTG here?
Answer: -0.15 kcal/mol

Question: Which “relative binding free energy” value does the source give for CTTTACACGTGGGAGT here?
Answer: -0.16 kcal/mol

Question: How did the “relative binding free energy” value turn out when GTGAGCACGTGAGGAT was run?
Answer: 0.1 kcal/mol

Question: For GATTTCACGTGGCATT, which “relative binding free energy” value is on record?
Answer: 0.37 kcal/mol

Question: With TTAAGCACGTGATGAT as the sequence, how does the “relative binding free energy” value read?
Answer: 0.09 kcal/mol

Question: For AAAATCACGTGGAGTG, which “relative binding free energy” value is on record?
Answer: 0.17 kcal/mol

Question: GTCGTCACGTGGAAGG was tested. Which “relative binding free energy” value did it give?
Answer: 0.13 kcal/mol

Question: For GAGACCACGTGATGGG, which “relative binding free energy” value is on record?
Answer: 0.28 kcal/mol

Question: With ATGGGCACGTGGTCAA as the sequence, how does the “relative binding free energy” value read?
Answer: -0.16 kcal/mol

Question: How did the “relative binding free energy” value turn out when GGGTTCACGTGAATGA was run?
Answer: 0.55 kcal/mol

Question: With GGTGCCACGTGAGTTT as the sequence, how does the “relative binding free energy” value read?
Answer: 0.2 kcal/mol

Question: With TGGTGCACGTGCGTGG as the sequence, how does the “relative binding free energy” value read?
Answer: -0.04 kcal/mol

Question: CGAGGCACGTGAAATG was tested. Which “relative binding free energy” value did it give?
Answer: 0.27 kcal/mol

Question: ATTGCCACGTGGTTGT was tested. Which “relative binding free energy” value did it give?
Answer: -0.24 kcal/mol

Question: How did the “relative binding free energy” value turn out when CGTAGCACGTGGGCGG was run?
Answer: -0.25 kcal/mol

Question: Which “relative binding free energy” value does the source give for AAGTGCACGTGGCATG here?
Answer: -0.08 kcal/mol

Question: How did the “relative binding free energy” value turn out when GGTGGCACGTGTCGTA was run?
Answer: -0.09 kcal/mol

Question: With AGGTACACGTGTAGCT as the sequence, how does the “relative binding free energy” value read?
Answer: 0.19 kcal/mol

Question: With GGTGTCACGTGTAACG as the sequence, how does the “relative binding free energy” value read?
Answer: 0.08 kcal/mol

Question: Which “relative binding free energy” value does the source give for GGAGTCACGTGGATCG here?
Answer: 0.16 kcal/mol

Question: How did the “relative binding free energy” value turn out when AGGACCACGTGCGGGG was run?
Answer: -0.01 kcal/mol

Question: How did the “relative binding free energy” value turn out when GTGGGCACGTGTTGCG was run?
Answer: -0.11 kcal/mol

Question: Which “relative binding free energy” value does the source give for TCGGTCACGTGATACG here?
Answer: 0.35 kcal/mol

Question: How did the “relative binding free energy” value turn out when TCTATCACGTGAAGTT was run?
Answer: 0.43 kcal/mol

Question: How did the “relative binding free energy” value turn out when TTAATCACGTGTAATT was run?
Answer: 0.23 kcal/mol

Question: How did the “relative binding free energy” value turn out when GAGTGCACGTGCCGGT was run?
Answer: -0.04 kcal/mol

Question: For GGGAGCACGTGTTCTT, which “relative binding free energy” value is on record?
Answer: -0.03 kcal/mol

Question: GCTGTCACGTGGTAAA was tested. Which “relative binding free energy” value did it give?
Answer: 0.2 kcal/mol

Question: With ATATTCACGTGAGGGA as the sequence, how does the “relative binding free energy” value read?
Answer: 0.4 kcal/mol

Question: With TGTATCACGTGTTTTT as the sequence, how does the “relative binding free energy” value read?
Answer: 0.21 kcal/mol

Question: For TAGGTCACGTGTTTAA, which “relative binding free energy” value is on record?
Answer: 0.09 kcal/mol

Question: ACTTGCACGTGTGGTT was tested. Which “relative binding free energy” value did it give?
Answer: -0.01 kcal/mol

Question: How did the “relative binding free energy” value turn out when TTTTGCACGTGAAGAG was run?
Answer: 0.28 kcal/mol

Question: GGAAGCACGTGGGCGC was tested. Which “relative binding free energy” value did it give?
Answer: -0.19 kcal/mol

Question: TCTATCACGTGTGGTG was tested. Which “relative binding free energy” value did it give?
Answer: 0.09 kcal/mol

Question: With TGCTGCACGTGAGTAT as the sequence, how does the “relative binding free energy” value read?
Answer: 0.17 kcal/mol

Question: With CTTTCCACGTGGTTTT as the sequence, how does the “relative binding free energy” value read?
Answer: 0.17 kcal/mol

Question: How did the “relative binding free energy” value turn out when AAGATCACGTGGGATG was run?
Answer: 0.12 kcal/mol

Question: Which “relative binding free energy” value does the source give for CTAGTCACGTGGGTGT here?
Answer: 0.03 kcal/mol
